Among the data in the antibiotic and cytotoxicity screens of Wong et al. (2023) are cytotoxicity call and growth inhibition call values, retold here.

The subject of one assay is HSkMC. As to the kind of experiment: cytotoxicity call (relative viability < 0.9). The following applies: 10 µM.
For another assay, the system named is HepG2. As to the kind of experiment: cytotoxicity call (relative viability < 0.9). To be noted: 10 µM.
For the next assay, the system named is S. aureus RN4220. Description: growth inhibition call (relative growth <= 0.2). To be noted: 50 µM.

This is one part of the list.

`C[C@@H]1CN([C@@H](C)CO)S(=O)(=O)c2ccc(C#CC(C)(C)O)cc2O[C@@H]1CN(C)Cc1ccncc1`: the cytotoxicity call in the assay on HSkMC and in the assay on HepG2 was “inactive” in each case. In addition, in the assay with S. aureus RN4220, the growth inhibition call is “inactive”.
As to `C[C@@H]1CN([C@@H](C)CO)C(=O)Cc2cc(NC(=O)c3ccncc3)ccc2O[C@H]1CN(C)S(=O)(=O)c1ccc(Cl)cc1`, the cytotoxicity call in the assay with HSkMC and in the assay with HepG2 was “inactive” each time. Further, the growth inhibition call in the assay with S. aureus RN4220 was “inactive”.
Consider `C[C@@H]1CCCCO[C@H](CN(C)Cc2ccc(C(F)(F)F)cc2)[C@@H](C)CN([C@@H](C)CO)C(=O)c2cc(NC(=O)C3CCCCC3)ccc2O1`, for which the cytotoxicity call in the assay with HSkMC was “inactive”. Besides, in the assay with HepG2, the cytotoxicity call was “active”. Also, the growth inhibition call with S. aureus RN4220 was “inactive”.
For `C[C@@H]1CN([C@@H](C)CO)C(=O)Cc2cc(NC(=O)CCN3CCOCC3)ccc2O[C@@H]1CN(C)Cc1ccc2c(c1)OCO2`, the cytotoxicity call in the assay with HSkMC and in the assay on HepG2 was “inactive” each time. In the assay with S. aureus RN4220, the growth inhibition call was “inactive”.
Regarding `COc1cccc(C#Cc2ccc3c(c2)O[C@@H](CN(C)C(=O)CN2CCOCC2)[C@@H](C)CN([C@H](C)CO)S3(=O)=O)c1`, the cytotoxicity call in the assay with HSkMC and with HepG2 was “inactive” throughout. In the assay on S. aureus RN4220, the growth inhibition call is “inactive”.
In the case of `C[C@H]1CN([C@@H](C)CO)C(=O)Cc2cc(NC(=O)C3CC3)ccc2O[C@H]1CN(C)Cc1ccc(Oc2ccccc2)cc1`, the cytotoxicity call with HSkMC and in the assay on HepG2 was “inactive” throughout. Further, the growth inhibition call in the assay on S. aureus RN4220 is “inactive”.
With `C[C@H](CO)N1C[C@H](C)[C@@H](CN(C)S(C)(=O)=O)Oc2ccc(NC(=O)Nc3ccccc3)cc2CC1=O`, the cytotoxicity call in the assay on HSkMC and in the assay with HepG2 was “inactive” in each case. In addition, the growth inhibition call in the assay with S. aureus RN4220 is “inactive”.
Consider `Cc1noc(C)c1NC(=O)N(C)C[C@H]1Oc2c(NC(=O)c3ccncc3)cccc2C(=O)N([C@H](C)CO)C[C@@H]1C`, for which the cytotoxicity call with HSkMC and in the assay with HepG2 was “inactive” each time. Besides, in the assay with S. aureus RN4220, the growth inhibition call was “inactive”.
Take `C[C@@H]1CCCCO[C@@H](CN(C)Cc2ccccc2)[C@@H](C)CN([C@H](C)CO)C(=O)c2cc(NC(=O)CCC(F)(F)F)ccc2O1`: the cytotoxicity call with HSkMC and in the assay on HepG2 was “inactive” throughout. Besides, the growth inhibition call with S. aureus RN4220 was “inactive”.
On to `O=C(Cn1ccnc1[N+](=O)[O-])NCCO`, for which the cytotoxicity call in the assay with HSkMC and in the assay on HepG2 was “inactive” throughout. In the assay with S. aureus RN4220, the growth inhibition call is “inactive”.
Consider `C[C@@H](NC(=O)C[C@@H]1C=C[C@@H](NC(=O)CN2CCOCC2)[C@H](CO)O1)c1ccccc1`, for which the cytotoxicity call in the assay with HSkMC and in the assay on HepG2 was “inactive” each time. Moreover, the growth inhibition call with S. aureus RN4220 is “inactive”.
Turning to `CC(=O)Nc1ccc(S(=O)(=O)NC(=O)Cn2nnc(COc3ccc(C)cc3)c2-c2ccccc2)cc1`, the cytotoxicity call in the assay with HSkMC and in the assay on HepG2 was “inactive” in each case. Moreover, the growth inhibition call with S. aureus RN4220 is “inactive”.
With `C=CCN(C(=O)[C@H]1N(c2c(Cl)cccc2CO)C(=O)[C@H]2[C@H](C(=O)O)[C@@H]3C=C[C@@]21O3)c1ccc(OC)cc1`, the cytotoxicity call in the assay on HSkMC and in the assay with HepG2 was “inactive” each time. Also, the growth inhibition call in the assay with S. aureus RN4220 is “inactive”.
As to `C[C@@H]1CCCCO[C@@H](CN(C)S(=O)(=O)c2ccc(Cl)cc2)[C@@H](C)CN([C@H](C)CO)C(=O)c2cc(NC(=O)Nc3ccc(C(F)(F)F)cc3)ccc2O1`, the cytotoxicity call with HSkMC and in the assay with HepG2 was “inactive” throughout. The growth inhibition call in the assay on S. aureus RN4220 was “inactive”.
On to `C[C@@H]1CN([C@@H](C)CO)C(=O)CCCn2cc(nn2)CO[C@H]1CN(C)C(=O)Nc1ccc2c(c1)OCO2`, for which the cytotoxicity call in the assay with HSkMC and in the assay with HepG2 was “inactive” in each case. Besides, the growth inhibition call in the assay with S. aureus RN4220 was “inactive”.
With `C[C@@H]1CN([C@@H](C)CO)C(=O)c2cccc(NC(=O)Nc3ccccc3)c2O[C@H]1CN(C)C(=O)Nc1cccc2ccccc12`, the cytotoxicity call with HSkMC and in the assay with HepG2 was “inactive” throughout. The growth inhibition call in the assay on S. aureus RN4220 is “inactive”.
Take `C[C@@H]1CCCCO[C@@H](CN(C)Cc2ccncc2)[C@H](C)CN([C@H](C)CO)C(=O)c2cc(NC(=O)Nc3ccc(F)cc3)ccc2O1`: the cytotoxicity call in the assay on HSkMC and in the assay on HepG2 was “inactive” throughout. Besides, the growth inhibition call with S. aureus RN4220 is “inactive”.
Take `C[C@@H]1CN([C@@H](C)CO)C(=O)c2cc(C#CC3(O)CCCC3)cnc2O[C@H]1CN(C)C(=O)C1CCCCC1`: the cytotoxicity call in the assay with HSkMC and in the assay on HepG2 was “inactive” throughout. The growth inhibition call in the assay on S. aureus RN4220 is “inactive”.
For `C[C@@H]1CN([C@@H](C)CO)C(=O)Cc2cc(NC(=O)c3ccncc3)ccc2O[C@@H]1CN(C)Cc1ccc(-c2ccccc2)cc1`, the cytotoxicity call in the assay with HSkMC and with HepG2 was “inactive” each time. Moreover, in the assay with S. aureus RN4220, the growth inhibition call is “inactive”.
For the compound `CNC[C@@H]1Oc2cc(C#CC(C)(C)O)ccc2S(=O)(=O)N([C@@H](C)CO)C[C@H]1C`, the cytotoxicity call in the assay on HSkMC and in the assay on HepG2 was “inactive” each time. In addition, the growth inhibition call in the assay with S. aureus RN4220 was “inactive”.
Consider `C[C@@H]1CCCCO[C@@H](CN(C)C(=O)Nc2ccccc2)[C@@H](C)CN([C@H](C)CO)C(=O)c2cc(NC(=O)CCC(F)(F)F)ccc2O1`, for which the cytotoxicity call in the assay with HSkMC and in the assay on HepG2 was “inactive” each time. The growth inhibition call in the assay on S. aureus RN4220 is “inactive”.
For the compound `COc1ccc(CNC(=O)N(C)C[C@H]2OCc3ccccc3-c3c(n(C)c4ccccc34)C(=O)N([C@H](C)CO)C[C@@H]2C)cc1`, the cytotoxicity call in the assay on HSkMC and with HepG2 was “inactive” in each case. In addition, in the assay on S. aureus RN4220, the growth inhibition call is “inactive”.
With `C[C@H]1CN([C@@H](C)CO)C(=O)c2cccc(NC(=O)c3cnccn3)c2O[C@@H]1CN(C)Cc1ccc(C(=O)O)cc1`, the cytotoxicity call with HSkMC and with HepG2 was “inactive” in each case. Further, the growth inhibition call in the assay on S. aureus RN4220 was “inactive”.
As to `CCCC#Cc1cnc2c(c1)C(=O)N([C@H](C)CO)C[C@@H](C)[C@H](CN(C)S(=O)(=O)c1cccc(OC)c1)O2`, the cytotoxicity call in the assay with HSkMC and with HepG2 was “inactive” each time. For the same compound, the growth inhibition call with S. aureus RN4220 is “inactive”.
In the case of `CCn1nc(C(=O)O)c(=O)c2cc3c(cc21)OCO3`, the cytotoxicity call in the assay on HSkMC (human skeletal muscle cells) and in the assay on HepG2 was “inactive” each time. Also, in the assay on S. aureus RN4220, the growth inhibition call was “inactive”.
With `CC(=O)OC[C@@H]1O[C@H](O[C@@H]2CC[C@]34C[C@]35CC[C@]3(C)[C@@H]([C@@H](C)[C@H]6C[C@@H](O)C(C)(C)O6)CC[C@@]3(C)[C@H]5CC[C@H]4[C@H]2C)[C@@H](O)[C@H](OC(C)=O)[C@@H]1O[C@H]1O[C@@H](CO)[C@@H](O[C@H]2O[C@@H](CO)[C@@H](O)[C@@H](O)[C@@H]2O)[C@@H](O[C@H]2O[C@@H](C)[C@@H](O)[C@@H](O)[C@@H]2O)[C@@H]1O`, the cytotoxicity call with HSkMC and in the assay on HepG2 was “inactive” each time. In addition, the growth inhibition call in the assay with S. aureus RN4220 was “inactive”.
Regarding `C[C@H]1CCCCO[C@@H](CN(C)S(C)(=O)=O)[C@@H](C)CN([C@@H](C)CO)C(=O)c2cc(N(C)C)ccc2O1`, the cytotoxicity call with HSkMC and in the assay with HepG2 was “inactive” throughout. In the assay on S. aureus RN4220, the growth inhibition call is “inactive”.
